Measurements from US20230416360A1 (SIMCERE ZAIMING PHARMACEUTICAL, published 2023).

T1: murine CD22-ECD-His (mouse, UniProt P35329 22-708)
T1 construct: extracellular domain; Bought; also called mouse CD22; murine CD22 protein
T1 sequence (looked up): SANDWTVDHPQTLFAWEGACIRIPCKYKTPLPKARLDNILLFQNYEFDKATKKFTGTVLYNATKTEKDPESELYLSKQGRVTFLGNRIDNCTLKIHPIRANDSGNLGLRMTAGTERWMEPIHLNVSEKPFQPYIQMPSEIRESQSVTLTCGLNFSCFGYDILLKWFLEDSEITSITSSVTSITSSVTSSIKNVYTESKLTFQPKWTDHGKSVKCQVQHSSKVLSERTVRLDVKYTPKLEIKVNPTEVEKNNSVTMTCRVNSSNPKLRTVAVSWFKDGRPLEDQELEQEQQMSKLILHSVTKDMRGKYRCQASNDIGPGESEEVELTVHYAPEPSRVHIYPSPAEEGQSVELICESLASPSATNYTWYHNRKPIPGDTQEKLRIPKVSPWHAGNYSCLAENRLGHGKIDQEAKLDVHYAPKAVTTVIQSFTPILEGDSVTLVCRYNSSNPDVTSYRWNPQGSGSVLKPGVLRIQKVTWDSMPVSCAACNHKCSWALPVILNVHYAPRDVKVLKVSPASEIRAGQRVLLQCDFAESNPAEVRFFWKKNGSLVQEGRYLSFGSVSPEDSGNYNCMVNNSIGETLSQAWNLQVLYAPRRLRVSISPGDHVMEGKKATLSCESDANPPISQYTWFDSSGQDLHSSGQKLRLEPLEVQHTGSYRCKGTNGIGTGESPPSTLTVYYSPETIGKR

T2: human CD22-ECD-His (human, UniProt P20273 20-687)
T2 construct: Made in HEK293E, purified on nickel column; also called hCD22-ECD-His; recombinant human CD22-ECD His; not shown: His tag
T2 sequence: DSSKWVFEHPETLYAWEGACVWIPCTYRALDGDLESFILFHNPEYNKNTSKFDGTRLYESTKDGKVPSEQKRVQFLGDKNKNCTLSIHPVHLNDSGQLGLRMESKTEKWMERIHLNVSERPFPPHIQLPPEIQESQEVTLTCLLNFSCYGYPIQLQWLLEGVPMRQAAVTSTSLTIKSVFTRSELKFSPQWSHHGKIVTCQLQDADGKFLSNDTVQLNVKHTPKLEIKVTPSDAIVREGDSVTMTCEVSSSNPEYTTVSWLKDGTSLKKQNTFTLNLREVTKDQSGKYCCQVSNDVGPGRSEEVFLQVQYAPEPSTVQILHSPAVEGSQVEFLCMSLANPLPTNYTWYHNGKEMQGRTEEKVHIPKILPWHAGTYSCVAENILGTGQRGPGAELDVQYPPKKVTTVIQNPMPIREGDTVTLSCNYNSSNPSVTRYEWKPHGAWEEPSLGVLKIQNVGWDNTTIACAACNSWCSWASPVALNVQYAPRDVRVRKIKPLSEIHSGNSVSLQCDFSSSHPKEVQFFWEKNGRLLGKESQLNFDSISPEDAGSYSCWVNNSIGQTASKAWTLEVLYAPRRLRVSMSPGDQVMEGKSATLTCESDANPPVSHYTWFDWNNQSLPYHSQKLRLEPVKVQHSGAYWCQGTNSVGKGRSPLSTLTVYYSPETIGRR


Key:
[1] = biological target: T1, murine CD22-ECD-His; experiment: ELISA, coated mouse CD22, antibody 10 nM
Method: (§1) The plate was sealed with plastic film and incubated overnight at 4° C., the plate was washed 2 times with PBS the next day, and then a blocking solution [PBS+2% (w/w) BSA] was added for blocking at room temperature for 2 hours. […] After incubation at 37° C. for 2 hours, the plate was washed 3 times with PBS. HRP (horseradish peroxidase)-labeled secondary antibody (purchased from Sigma, catalog number: A0170) was added, and incubated at 37° C. for 2 hours, and the plate was washed 5 times with PBS. TMB substrate was added at 50 μl/well, and incubated at room temperature for 30 minutes, then a stop solution (1.0 N HCl) was added at 50 μl/well.

[2] = biological target: T1, murine CD22-ECD-His; experiment: ELISA, coated mouse CD22, antibody 100 nM
Method: as §1

[3] = biological target: T1, murine CD22-ECD-His; experiment: ELISA, coated mouse CD22, antibody 0.10 nM
Method: as §1

[4] = biological target: T2, human CD22-ECD-His; experiment: ELISA, coated hCD22-ECD-His, antibody 10 nM
Method: as §1

[5] = biological target: T1, murine CD22-ECD-His; experiment: ELISA, coated mouse CD22, antibody 0.001 nM
Method: as §1

[6] = biological target: T2, human CD22-ECD-His; experiment: ELISA, coated hCD22-ECD-His, antibody 100 nM
Method: as §1

[7] = biological target: T1, murine CD22-ECD-His; experiment: ELISA, coated mouse CD22, antibody 0.0001 nM
Method: as §1

[8] = biological target: T2, human CD22-ECD-His; experiment: ELISA, coated hCD22-ECD-His, antibody 0.01 nM
Method: as §1

[9] = biological target: T2, human CD22-ECD-His; experiment: ELISA, coated hCD22-ECD-His, antibody 0.10 nM
Method: as §1

[10] = biological target: T1, murine CD22-ECD-His; experiment: ELISA, coated mouse CD22, antibody 0.00001 nM
Method: as §1

[11] = biological target: T2, human CD22-ECD-His; experiment: ELISA, coated hCD22-ECD-His, antibody 0.001 nM
Method: as §1

[12] = biological target: T2, human CD22-ECD-His; experiment: ELISA, coated hCD22-ECD-His, antibody 0.00001 nM
Method: as §1

[13] = biological target: T2, human CD22-ECD-His; experiment: ELISA, antibody coated 2 ug/mL, hCD22-ECD-His titrated

OD450 [1] | OD450 [2] | OD450 [3] | OD450 [4] | OD450 [5] | OD450 [6] | OD450 [7] | OD450 [8] | OD450 [9] | OD450 [10] | OD450 [11] | OD450 [12] | EC80 [13] [nM] | Binder
0.08 | 0.14 | 0.06 | 1.43 | 0.06 | 1.38 | 0.07 | 0.64 | 1.29 | 0.08 | 0.26 | 0.14 | 2.8 | S002-NB151-66 VHH-Fc (Fc fusion, VHH cloned into vector BI3.4-huIgG1 (hinge and human IgG1 Fc), made in HEK293E) QVQLVESGGGLVQAGGSLRLACAASGDTVSIYYMGWFRQAPGKEREFVGALSASGQFTDHADSVKGRFTISRDDAQNTVFLHMNDLKPEDTAVYYCAVQRYGWVYRTDKTMYNYWGQGTQVTVSS[human IgG1 Fc with changes cut from this listing]
0.05 | 0.06 | 0.05 | 1.95 | 0.05 | 2.26 | 0.05 | 0.68 | 1.65 | 0.05 | 0.25 | 0.11 | 2.4 | S002-NB150-40 VHH-Fc (Fc fusion, VHH cloned into vector BI3.4-huIgG1 (hinge and human IgG1 Fc), made in HEK293E; also called 5002-NB150-40) QVQLVESGGGLVQDGGSLRLSCAASGLTFSFYNMGWFRQAPGKEREFVAAISQSGLSTHYADSMKGRFTISRDNAKNTVYLQMNSLNPVDTAAYYCAAGRRGYLASTTNDYEYWGQGTQVTVSS[human IgG1 Fc with changes cut from this listing]
0.06 | 0.07 | 0.05 | 1.9 | 0.05 | 2.08 | 0.05 | 1 | 1.9 | 0.05 | 0.3 | 0.08 | 1.6 | S002-NB150-57 VHH-Fc (Fc fusion, VHH cloned into vector BI3.4-huIgG1 (hinge and human IgG1 Fc), made in HEK293E; also called 5002-NB150-57) QVQLVESGGGLVQAGDSLRLSCAVTGRAYSRSDMGWFRQAPGKEREIVAVITFGGGTDYADSVKGRFTISSEDTKNTLYLQMNSLQPEDTAVYYCAAGFRGSRWSTAARRKEDDYAFWGQGTQVTVSS[human IgG1 Fc with changes cut from this listing]

The next lines start with the binder.

Binder | OD450 [1] | OD450 [2] | OD450 [3] | OD450 [4] | OD450 [5] | OD450 [6] | OD450 [7] | OD450 [8] | OD450 [9] | OD450 [10] | OD450 [11] | OD450 [12] | EC80 [13] [nM]
S002-NB150-2 VHH-Fc (Fc fusion, VHH cloned into vector BI3.4-huIgG1 (hinge and human IgG1 Fc), made in HEK293E; also called 5002-NB150-2) QVQLVESGGGLVQPGGSLRLSCAASGSWFNIAMGWFRQAPGKEREFVAGIRWSDSKTYYADSVKGRFTISGDNAKNTTYLQMNSLKPEDTAVYYCAAQRYYRGSYNRQTNYDHWGQGTQVTVSS[human IgG1 Fc with changes cut from this listing] | 0.06 | 0.09 | 0.05 | 1.89 | 0.05 | 2.29 | 0.05 | 1.15 | 1.83 | 0.05 | 0.44 | 0.17 | 1.73
S002-NB151-82 VHH-Fc (Fc fusion, VHH cloned into vector BI3.4-huIgG1 (hinge and human IgG1 Fc), made in HEK293E; also called 5002-NB151-82) EVQVVESGGGLVQAGDSLRLSCTTSGRTFYGDYIAWFRQAPGKEREFVAAIAVRGRGTFYGDSVKGRFTISRDNAENTLSLQMNSLKPEDTAVYYCAADAGSYASRGFPVRETGRYDYWGQGTQVTVSS[human IgG1 Fc with changes cut from this listing] | 0.08 | 0.12 | 0.06 | 1.68 | 0.06 | 1.54 | 0.08 | 0.59 | 1.3 | 0.07 | 0.23 | 0.13 | 4
S002-NB150-5 VHH-Fc (Fc fusion, VHH cloned into vector BI3.4-huIgG1 (hinge and human IgG1 Fc), made in HEK293E; also called 5002-NB150-5) QLQLVESGGGLVQAGGSLRLSCVGSGDRVSIALMGWFRQAPGKEREFVAAISPSGGRITYSDSVKGRFTISRDNAKNTVYLQMNSLKRDDTAVYVCAANFRGYLSSSRGSDYAYWGQGTQVTVSS[human IgG1 Fc with changes cut from this listing] | 0.06 | 0.13 | 0.06 | 2.04 | 0.05 | 2.56 | 0.05 | 1.1 | 1.91 | 0.05 | 0.46 | 0.15 | 3.73
S002-NB151-64 VHH-Fc (Fc fusion, VHH cloned into vector BI3.4-huIgG1 (hinge and human IgG1 Fc), made in HEK293E; also called 5002-NB151-64) QVQLVESGGGLVQPGGSLTLSCAASGFDFSFYTMTWVRQAQGKGLEWVSTISTGGGGSNYADSVKGRFTISRDNAKKTLYLQMTSLKPEDTAVYYCASHRRGYMFVSSRKNEYDYWGRGTQVTVSS[human IgG1 Fc with changes cut from this listing] | 0.06 | 0.1 | 0.11 | 2.03 | 0.05 | 2.18 | 0.05 | 1.08 | 1.95 | 0.06 | 0.35 | 0.11 | 17.6
S002-NB150-42 VHH-Fc (Fc fusion, VHH cloned into vector BI3.4-huIgG1 (hinge and human IgG1 Fc), made in HEK293E; also called 5002-NB150-42) QVQLVESGGGLVQAGDSLKLSCLASGITFSSYYMSWFRQAPGKEREFVAGVGRSGAPSHHADSVKGRFTISRDNAKSAVYLQMNSLQPEDTAVYFCAAKWMAASTTVADYWGQGTQVTVSS[human IgG1 Fc with changes cut from this listing] | 0.06 | 0.07 | 0.05 | 1.82 | 0.05 | 2.02 | 0.05 | 0.93 | 1.87 | 0.05 | 0.28 | 0.09 | 2.27
